Data reported in the supplement of paper PMC3724861.
Some of the results follow.

test system: T1, Caupolican (Caup) homeodomain DNA-binding domain; experiment: PBM E-score (8-mer, recovered from the published 9-mer minima) (E-score (dimensionless, -0.5 to 0.5)); Drosophila protein; higher = stronger relative binding preference, active = 0.31 or more
T1 sequence: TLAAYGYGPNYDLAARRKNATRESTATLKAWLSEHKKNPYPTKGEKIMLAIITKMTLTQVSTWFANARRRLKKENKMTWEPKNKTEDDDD
In short: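 An enrichment score, with higher meaning stronger, expresses relative binding preference for each short DNA word. The protein used was Caup's homeodomain DNA-binding domain (residues 214-303), produced by in vitro transcription and translation and tested at 100 nM on custom-designed protein binding microarrays. The 8-mer values were recovered from published 9-mer scores, each equal to the lower of its two constituent 8-mer scores.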

Sequence | PBM E-score
AAGCGTAT | inactive: 0.0255
ACGCGTAC | inactive: 0.1
GATACGCC | inactive: -0.133
CAAACTGC | inactive: -0.0256
CAGTGTGG | inactive: -0.109
GCCCCTAA | inactive: -0.142
AGCACGTA | inactive: 0.0899
CGTGCGAG | inactive: -0.159
AAAACAAG | ≥ 0.302
AAAGTCAG | inactive: -0.0861
CGCATTAG | inactive: -0.0694
CTTACGAC | inactive: 0.0222
CGGCGTTA | inactive: -0.0644
ATCATAAT | inactive: 0.167
AACGCCTT | inactive: -0.106
CAGCTCAA | inactive: -0.125
ATTTGGCC | inactive: -0.0772
AAGTATTC | inactive: 0.0774
AGAGTGCT | ≥ 0.0592
CTCGGTTC | inactive: -0.111
CATTCCGC | inactive: -0.128
ATAGACAG | inactive: 0.16
TACGTAGA | inactive: 0.0913
ACAGCTCA | inactive: 0.0446
GGATATAC | inactive: 0.0874

Sequence | PBM E-score
AATCCGCT | inactive: -0.0276
GCACAGGA | inactive: -0.0505
GTCAAAGA | inactive: 0.0779
CTTTCTGA | inactive: 0.0482
AACTTGAA | inactive: 0.00855
CCTACCAA | inactive: -0.0124
AGGGTGCA | ≥ -0.0289
CGGCGTGA | inactive: -0.168
CGTCGGCA | inactive: -0.106
CGTCGCAA | inactive: -0.108
CCCTGCGA | inactive: -0.218
TATGGTCA | inactive: 0.0219
CCGGCAGG | inactive: -0.184
CTCATATC | inactive: -0.016
CCTTTGAG | inactive: -0.0619
AGCTGTAA | inactive: 0.166
CCGGTGCA | inactive: -0.201
AACCGGGC | inactive: -0.264
GATGTACC | active: 0.366
GAAGCCCA | inactive: -0.162
GACTACGA | inactive: -0.0174
ATTCACGC | inactive: -0.00409
ATGATGCC | inactive: -0.0669
AGTTATGG | inactive: 0.0722
ATCTCAGA | inactive: 0.00223

Sequence | PBM E-score
CACCGATA | inactive: 0.0528
CCCTTCAG | inactive: -0.0511
CACCTAAG | inactive: 0.0447
TAAGTAGA | inactive: 0.11
TATAAGGA | inactive: 0.086
CACCAGGC | inactive: -0.132
ATAAAAAC | inactive: 0.235
GATAGACC | inactive: -0.0341
CAGTCTCC | inactive: -0.0795
CATAAAGG | inactive: 0.0282
CAGTTTGC | inactive: -0.0156
CCTCCTAA | inactive: 0.0234
ATTGAGCC | inactive: -0.129
GATGCTCC | inactive: -0.0852
TCGGCGCA | inactive: -0.118
GCAGCTGC | inactive: -0.262
CTAGTGTA | inactive: 0.184
AAAAACCC | inactive: -0.0858
CCTAGAGA | inactive: -0.2
CCTACGAG | inactive: 0.02
GAAAGGTA | inactive: 0.0535
GCGTGCCC | inactive: -0.202
AGATGCTG | inactive: -0.00229
TCAAGCCA | inactive: -0.0609
CTCCGGGC | inactive: -0.224

Sequence | PBM E-score
CCCCGAGC | inactive: -0.179
CTATCAAA | inactive: 0.0453
ACGGAAGG | inactive: -0.115
CTCGGTTA | inactive: -0.0729
TCTTGTAA | active: 0.371
CACCTGGA | inactive: 0.0686
CCATTTAG | inactive: -0.0316
ATCCTGGG | inactive: -0.153
CCGATTAG | inactive: -0.041
AACATAAC | active: 0.318
GACTCGGA | inactive: -0.135
CCATTTCG | inactive: -0.144
CCACCCTA | inactive: -0.0785
GGGCGCCA | inactive: -0.229
CTGTCCAA | inactive: 0.128
GGTCTGAC | inactive: -0.0429
CGAAAGTA | inactive: 0.0221
CTTACTTC | inactive: -0.0287
CTCTGTCA | inactive: 0.0981
CTAAAGGC | inactive: -0.0603
GGGCATAC | inactive: -0.0401
CGTTTTTA | inactive: 0.0882
ATTCAGAC | inactive: 0.0551
CCTAGTGA | inactive: -0.0536
CTACGATC | inactive: 0.0466

Sequence | PBM E-score
ACAATTGC | inactive: 0.162
CGGCGTAG | inactive: -0.0397
ACATTTAC | ≥ 0.275
ACCGGGTC | inactive: -0.0442
ACTGGTAT | inactive: 0.161
CTTTATAA | inactive: 0.0691
ACTCGACA | inactive: 0.202
ATTTCGGG | inactive: -0.0916
AAAGGGAC | inactive: -0.0908
CGCTACGC | inactive: -0.278
ACGCTCAT | ≥ 0.0645
GGTCTGCA | inactive: -0.122
CCACAAAC | inactive: -0.0326
GCCCGTAC | inactive: -0.0447
AGCCCTCA | inactive: -0.12
GTTGAACA | inactive: 0.222
GGTCCCCA | inactive: -0.273
TAAGAAAA | inactive: 0.0363
CGTTCCAA | inactive: 0.0102
CTCAAAAA | inactive: 0.00385
AAACTAGG | inactive: 0.0278
CAGATGCG | inactive: -0.00655
ATTTCAGA | inactive: 0.0637
CGCAACGA | inactive: -0.035
AACTTCGG | inactive: 0.0203

Sequence | PBM E-score
GTTTCATA | inactive: -0.012
AACCGTAA | inactive: -0.0196
GTCTGAAA | inactive: 0.0824
CAGATTAA | inactive: 0.0738
GAATAATC | inactive: 0.0987
CTCGGACC | inactive: -0.171
AGACCCAG | inactive: -0.195
GTCTACAA | inactive: 0.185
ACCCGCCA | inactive: -0.0916
AGCTGCCG | inactive: -0.255
ACCCCAGA | inactive: -0.199
CGATGTAC | active: 0.374
CCGTTCCG | inactive: -0.195
AAGGACGG | inactive: -0.169
ACAAGCAA | active: 0.341
CAGCCTGC | inactive: -0.106
CTAAGCGC | inactive: -0.176
CGAACTTC | inactive: 0.0514
CAAAGCGA | inactive: -0.0671
CCTTGCTC | inactive: -0.0337
CATGATAG | inactive: 0.106
AATTCGTG | inactive: 0.0311
ATGCACAC | inactive: 0.139
GGTCTCAC | inactive: -0.0324
ATGGTACG | inactive: 0.0989

Sequence | PBM E-score
AGATTAAT | inactive: 0.0555
CCCACGGA | inactive: -0.157
AAGGGTGT | inactive: 0.117
TAGAGCTA | inactive: -0.00972
AACGAGAG | inactive: 0.0592
CTTTGTTC | inactive: 0.00543
GGCGCCTA | inactive: -0.202
AATACGGA | inactive: 0.0769
GACACCAA | inactive: 0.119
CTGTCCCC | inactive: -0.0725
ACCGGCCT | inactive: -0.155
AACCTTGA | inactive: 0.0304
CGCCGGAA | inactive: -0.206
CAGCCAGC | inactive: -0.181
ATAAGACC | inactive: 0.0461
ATAATCTA | inactive: 0.155
GGCGTCCC | inactive: -0.263
CGCCCTAA | inactive: -0.205
CATACGTC | inactive: 0.0903
GTCTTAAA | inactive: 0.0416
ACCGCGCC | inactive: -0.215
CACGAAAG | inactive: 0.0338
AGTGAACC | inactive: -0.0258
TATAGCAA | inactive: 0.0621
CAGAAGTC | inactive: 0.00548

Sequence | PBM E-score
CTTTAATC | inactive: 0.00156
CAAGGGAA | inactive: 0.0602
GACTGTCA | inactive: 0.0501
GCCCATAC | inactive: -0.0055
AAATCTAT | inactive: 0.0784
CTGTGATC | inactive: 0.0573
ACCGGAAA | inactive: 0.00834
GGATTTAA | inactive: 0.025
TGGCGGAA | inactive: -0.17
TCCCCCAA | inactive: -0.298
CTGGTGCA | inactive: -0.142
CATGACTC | inactive: 0.0721
CCGGAACC | inactive: -0.196
CAGAGCAA | inactive: 0.104
ATAGGTGA | inactive: 0.0609
CTACTCGC | inactive: -0.13
CCGACCAG | inactive: -0.0451
ATCCCCGC | inactive: -0.131
AAGCCAGG | inactive: -0.171
GATTATAC | inactive: 0.0559
ACGATTGA | inactive: 0.119
CCACCCGA | inactive: -0.108
CGACCGTA | inactive: 0.0138
CAGAGTTA | inactive: -0.0217
GTGCTATA | inactive: 0.102

Sequence | PBM E-score
CTTCAAGC | inactive: -0.173
GAGCCCTC | inactive: -0.223
ACTGCAGG | inactive: -0.0592
GGGTTCCA | inactive: -0.163
AGGCATAT | inactive: 0.0491
ATACCTTG | inactive: 0.128
AAACAGAG | inactive: 0.0593
GGTATACA | inactive: 0.183
CCGGCCCG | inactive: -0.203
ATAGGAAC | inactive: 0.105
ATTACGGC | inactive: -0.0236
GTTGGAAA | inactive: 0.0613
GCTCATTA | inactive: -0.0168
CGTACCCA | inactive: -0.101
AGAATCTC | inactive: 0.0299
TACGTTAA | inactive: 0.0692
AATACTCT | inactive: 0.126
ATCCCTCA | inactive: -0.0741
CTAGCCAA | inactive: -0.0769
AGTGCGAA | inactive: 0.0169
CATTTGCG | inactive: 0.00242
ACGTCCAG | inactive: -0.0076
